Publication PMC4336329 (PLoS ONE, 2015)
Out of some 310,000 compounds screened, about 14,000 (4.5%) showed an effect of 50% or more. The effect is printed as a negative number. The list shows a part of the results.

molecular target: human ether-à-go-go-related gene (hERG) potassium channel (human, UniProt Q12809); experiment: primary screen, population patch clamp on CHO cells stably expressing hERG
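Further: peak tail current of the secondary pulse compared with the same well before compound.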

Sequence of human ether-à-go-go-related gene (hERG) potassium channel (Q12809 whole entry, looked up): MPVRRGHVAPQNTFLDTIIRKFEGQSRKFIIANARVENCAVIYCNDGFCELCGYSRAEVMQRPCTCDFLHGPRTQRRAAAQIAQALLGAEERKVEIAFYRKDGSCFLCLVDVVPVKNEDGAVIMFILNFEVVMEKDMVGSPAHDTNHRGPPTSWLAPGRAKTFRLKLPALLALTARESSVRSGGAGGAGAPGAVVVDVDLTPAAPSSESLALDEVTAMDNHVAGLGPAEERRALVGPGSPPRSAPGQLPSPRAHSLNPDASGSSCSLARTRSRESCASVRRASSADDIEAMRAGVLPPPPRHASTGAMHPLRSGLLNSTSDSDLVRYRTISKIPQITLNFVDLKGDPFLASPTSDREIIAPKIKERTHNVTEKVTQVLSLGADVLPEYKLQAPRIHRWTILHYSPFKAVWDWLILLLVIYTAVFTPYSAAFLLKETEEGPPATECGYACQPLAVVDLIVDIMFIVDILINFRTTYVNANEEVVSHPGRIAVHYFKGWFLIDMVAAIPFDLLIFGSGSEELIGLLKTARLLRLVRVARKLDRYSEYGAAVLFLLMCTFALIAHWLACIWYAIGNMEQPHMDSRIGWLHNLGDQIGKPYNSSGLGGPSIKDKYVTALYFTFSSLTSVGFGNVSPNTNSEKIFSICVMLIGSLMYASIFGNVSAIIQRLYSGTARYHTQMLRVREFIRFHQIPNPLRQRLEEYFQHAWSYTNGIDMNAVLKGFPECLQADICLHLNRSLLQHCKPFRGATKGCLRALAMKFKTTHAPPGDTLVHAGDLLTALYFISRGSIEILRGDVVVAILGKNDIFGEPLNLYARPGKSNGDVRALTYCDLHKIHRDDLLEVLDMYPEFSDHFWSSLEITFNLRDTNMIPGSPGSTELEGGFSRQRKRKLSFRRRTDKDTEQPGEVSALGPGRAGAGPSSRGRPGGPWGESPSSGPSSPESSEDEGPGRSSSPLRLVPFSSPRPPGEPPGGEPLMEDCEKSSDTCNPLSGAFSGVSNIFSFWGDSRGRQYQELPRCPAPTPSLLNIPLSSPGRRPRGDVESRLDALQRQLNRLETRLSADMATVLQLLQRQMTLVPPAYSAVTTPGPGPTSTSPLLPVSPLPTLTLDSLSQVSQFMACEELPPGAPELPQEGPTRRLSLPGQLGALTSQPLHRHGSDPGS

Point of comparison: Cc1cccc(CN2C(=O)[C@H]3Cc4c([nH]c5ccccc45)C(C)(C)N3C2=O)c1, “hERG current change (%, negative = inhibition) at 10uM” value -1.56%. Against it:
- CCC(=O)n1nc(-c2ccco2)nc1N — higher, 10.8%
- CC(=O)c1ccc2c3c(ccc(O)c13)CC2 — higher, 5.71%
- Cc1[nH]c2ccccc2c1CCNC(=O)CCC(=O)c1ccccc1 — higher, -0.284%
- Cc1cccc(NS(=O)(=O)c2cccc3nonc23)c1 — higher, 18.2%
- CCCCOC(=O)c1ccc(-c2ccc(/C=N/NC(=S)NCC)o2)cc1 — higher, 3.27%
- Cc1ccc(NC(=O)C(c2ccccc2)N2CCN(C(=O)c3ccco3)CC2)cc1 (centres unmarked) — lower, -72.9%
- CC(=O)Nc1ccccc1C(=O)OCC(=O)c1ccccc1Cl — lower, -12%
- CC12CCC(C(=O)NCc3ccc(F)cc3)(OC1=O)C2(C)C (centres unmarked) — higher, 22.4%
- COC(=O)c1cc2cc(Cl)ccc2nc1SC — higher, 15.2%
- CC(=O)Nc1ccc(NC(=O)CSc2nnc3ccc(-c4cccnc4)nn23)cc1 — higher, 19.8%
- CCOP(=O)(c1ccc(N(C)C)cc1)C(O)c1cccnc1 (centres unmarked) — lower, -3.86%
- CN(c1ccccc1)c1cc(Br)nc(Br)c1 — higher, 3.76%
- COc1cc(OC)cc(-c2cc3ncccc3cn2)c1 — lower, -18.2%
- O=C(Oc1ccccc1)c1cc2ccccc2o1 — higher, 13.2%
- CS(=O)(=O)N1CCN(c2ccccc2NC(=S)NC(=O)c2cccs2)CC1 — higher, 9.85%
- Cc1nn(C)c(C(=O)N2CCc3ccccc32)c1Cl — higher, 2.37%
- CCOn1c(=O)c(-c2ccc(Br)cc2)[n+]([O-])c2ccccc21 — higher, 13.6%
- O=C(CN1CCN(C(=O)C2CCCO2)CC1)Nc1ccc(Cl)cc1 (centres unmarked) — lower, -40.9%
- O=C(NCCCc1ccccc1)c1ccc(F)cc1 — higher, 2.13%
- Cc1nc2ccccc2c(=O)n1/N=C/c1ccccn1 — lower, -3.77%
- CCOC(=O)C1=C(C)N=C2SC(C(=O)OC)=CC(=O)N2C1c1ccc(OC)cc1 (centres unmarked) — lower, -8.56%
- CN(C)C/C=C/C(O)(c1ccccc1)c1ccccc1 — lower, -61.5%
- Cn1cc([N+](=O)[O-])c(C(=O)N/N=C/c2ccncc2)n1 — higher, 3.46%
- CC(=O)Nc1ccc2cc3ccc(NC(C)=O)cc3nc2c1 — higher, 23.4%
- COc1ccc2c(c1OC)c(=O)n1c3ccc(OC(C)C(=O)NCCN4CCOCC4)cc3c3ccnc2c31 (centres unmarked) — lower, -2.67%
- CCOc1cc(C(=S)N2CCOCC2)ccc1OC — higher, 11.2%
- Cc1oc(C(C)(C)C)cc1C(=O)Nc1ccc(C(=O)O)cc1 — lower, -13.7%
- O=C(Cc1ccc([N+](=O)[O-])cc1)NCc1ccncc1 — lower, -20.6%
- Cc1ccc(N2CC(C(=O)Nc3cc(C)ccc3F)CC2=O)cc1 (centres unmarked) — higher, -0.716%
- CCN(CC)S(=O)(=O)c1ccc(C)c(NC(=O)CNCCN(C(C)C)C(C)C)c1.O=C(O)C(=O)O — lower, -75.5%
- COc1ccc2oc(C(=O)Nc3nccs3)c(C)c2c1 — higher, 16.7%
- Cc1nc2ccccc2n1CC(=O)NCCN1CCOCC1 — higher, -1.03%
- O=C(Cn1nnc(-c2cccs2)n1)Nc1ccccc1C(F)(F)F — higher, 5.76%
- C=CCn1c(SCC(=O)Nc2cc(C)ccc2OC)nnc1-c1ccco1 — lower, -44.2%
- C/C(=N\Nc1cccc([N+](=O)[O-])c1)c1cc2ccccc2o1 — higher, 5.37%
- C=CCn1c(SCC(=O)NCc2ccc3c(c2)OCO3)nnc1C1COc2ccccc2O1 (centres unmarked) — lower, -29.8%
- CC(C)c1ccc(NC2CCCN(C(=O)c3cnn(C(C)C)c3)C2)cc1 (centres unmarked) — lower, -9.22%
- COc1ccc(CCNC(=S)N2CCN(S(=O)(=O)c3ccc(Cl)cc3)CC2)cc1 — higher, 22%
- COc1ccc(CN2CCn3ncc(C(=O)Nc4cc(C)cc(C)c4)c3C2=O)cc1 — higher, 9.29%
- CCOC(=O)Cc1csc(NS(=O)(=O)c2ccc(SC)cc2)n1 — higher, 11.4%
- CC1(C)Cc2c(C#N)c(OCC(=O)c3ccc(Cl)cc3)nc(-c3ccoc3)c2CO1 — higher, 15.3%
- Nc1nn(-c2ccccc2Cl)cc1-c1nn[nH]n1 — higher, 23.2%
- Cc1ccc(Cn2cc(C=O)c3ccccc32)cc1 — higher, 1.48%
- Cc1nc2c(s1)sc1ccccc12 — higher, -0.859%
- CC(C)CCN1C(=O)c2ccc(C(=O)OCC(=O)N(C)C3CCS(=O)(=O)C3)cc2C1=O (centres unmarked) — lower, -8.41%
- COc1ccc(CC(=O)Nc2ccc(-c3nnc(-c4ccccc4)o3)cc2)cc1 — lower, -13.1%
- C#CCOc1ccc(Br)cc1C(c1c(C)[nH][nH]c1=O)c1c(C)[nH][nH]c1=O — higher, 17.6%
- Cc1ccc(C)c2[nH]c(=O)c(CCNC(=O)CC(C)(C)C)cc12 — higher, 7.84%
- Cc1onc(-c2c(F)cccc2Cl)c1C(=O)NC1CC1 — higher, 14.6%
- C/C(=N\NC(=O)c1cc(C(C)C)[nH]n1)c1ccncc1 — higher, 23.6%
- O=S(=O)(NCc1cccs1)c1cccc2cccnc12 — lower, -32.8%
- Clc1ncccc1OCc1ccccc1 — lower, -11%
- Cc1ccc(-c2csc(NC(=O)c3ccno3)n2)cc1 — higher, 2.72%
- O=C(NCc1n[nH]c(=S)n1-c1ccc(Br)cc1)c1ccc(S(=O)(=O)N2CCCCC2)cc1 — higher, 0.455%
- O=C(N/N=C/c1cnc2ccccc2n1)c1cccc(F)c1 — lower, -13.8%
- Cc1nnc2sc(SCc3ccccc3)nn2c1=O — higher, 1.96%
- CC(C)COC(=O)N1CCN(S(=O)(=O)c2ccc3c(c2)CCC3)CC1 — higher, 5.93%
- O=C(O)CN1C(=O)/C(=C\c2cc(Br)ccc2OCc2ccc([N+](=O)[O-])cc2)SC1=S — lower, -19%
